Source: PubChem BioAssay AID256 (DTP/NCI, 2004)
Inconclusive results and toxic doses are left out. The source holds more than one record for some entries. Only these are listed. The source may hold further records. Values given together differ for a reason that is not stated; dose, time, organism, isomer or construct need not be as stated for each record.

System: CD2F1 mice, L1210 leukemia ip, survival T/C
Test: NCI In Vivo Anticancer Drug Screen. Data for tumor model L1210 Leukemia (intraperitoneal) in CD2F1 (CDF1) mice
Conditions: higher = longer survival
Description: The antitumor activity of compounds was measured in mice bearing transplantable tumors. Survival or tumor size were measured and the results are expressed as the measurement made in the treated group (T) divided by the measurement made in the vehicle treated control group (C). The tumor model used in this assay is L1210 Leukemia (intraperitoneal) in CD2F1 (CDF1) mice

Row | Structure (SMILES) | T/C (endpoint: mean survival time, dose: 100.0 mg/kg/injection, schedule: Q04DX003 (ip), vehicle: other) | T/C (endpoint: median survival time, dose: 0.63 mg/kg/injection, schedule: Q01DX009 (ip), vehicle: Klucel (hydroxypropylcellulose) (HPC))
1 | Cc1c2ccncc2c(C)c2c1[nH]c1ccccc12 | 97 % of control, 160 % of control, 192 % of control | 
2 | COc1c(O)cc2c(c1OC)-c1ccc(SC)c(=O)cc1C(NC(C)=O)CC2 (configuration not stated) |  | 120 % of control and 154 % of control
